Data: the supplement of paper PMC3334620
The full ranking holds about 33,000 sequences; the median of “E-score (-0.5 to 0.5)” is about -0.021, and the highest 2% start at about 0.32. This is one part of the list.

The sequences below were run against T1, Zap1 (UniProt P47043) (assay: PBM E-score (8-mer binding enrichment) (E-score (-0.5 to 0.5)); higher = stronger / more preferred TF binding; most listed sequences are background and not binding sites). Conditions: protein concentration: 200 nM; construct: GST-full length.
T1 sequence: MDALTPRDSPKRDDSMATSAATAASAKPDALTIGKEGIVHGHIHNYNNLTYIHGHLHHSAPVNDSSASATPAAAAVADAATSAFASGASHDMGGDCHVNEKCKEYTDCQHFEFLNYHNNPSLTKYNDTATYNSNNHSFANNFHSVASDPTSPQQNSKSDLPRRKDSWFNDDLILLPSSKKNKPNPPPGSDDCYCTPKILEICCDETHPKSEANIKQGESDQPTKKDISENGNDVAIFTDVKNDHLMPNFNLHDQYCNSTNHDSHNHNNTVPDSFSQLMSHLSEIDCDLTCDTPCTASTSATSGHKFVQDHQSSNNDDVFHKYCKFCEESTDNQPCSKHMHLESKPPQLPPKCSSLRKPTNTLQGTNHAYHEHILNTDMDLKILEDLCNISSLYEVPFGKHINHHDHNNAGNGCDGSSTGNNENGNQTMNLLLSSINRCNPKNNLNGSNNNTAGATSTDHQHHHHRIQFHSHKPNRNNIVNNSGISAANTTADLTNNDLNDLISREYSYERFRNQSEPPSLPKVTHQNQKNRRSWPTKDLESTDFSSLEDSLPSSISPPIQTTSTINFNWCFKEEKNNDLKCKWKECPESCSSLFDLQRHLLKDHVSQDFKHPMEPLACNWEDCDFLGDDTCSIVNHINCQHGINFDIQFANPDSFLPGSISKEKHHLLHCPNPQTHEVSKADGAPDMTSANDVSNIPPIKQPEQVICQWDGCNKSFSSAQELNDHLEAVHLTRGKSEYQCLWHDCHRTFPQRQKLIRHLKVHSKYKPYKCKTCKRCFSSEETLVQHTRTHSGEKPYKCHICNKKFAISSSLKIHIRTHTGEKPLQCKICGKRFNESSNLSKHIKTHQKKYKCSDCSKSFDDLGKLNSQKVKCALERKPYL
Outline: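 Full-length yeast transcription factors or their DNA-binding domains, GST-tagged and expressed with PURExpress, were applied at about 100-200 nM to universal all-10-mer Agilent arrays. These arrays had been made double-stranded by primer extension on fresh or once-stripped slides. Detection used fluorescent anti-GST, normalisation used masliner, and E-scores for ungapped eight-base words pooled with reverse complements came from the Universal PBM Analysis Suite.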

Sequence | PBM E-score
CGAGATTC | -0.0831
CATGATAC | 0.124
CTGGCTGC | -0.259
CGTCCCTA | -0.143
CGAATGAA | -0.00672
GGACAGCA | -0.052
GAGACCCC | 0.105
ATTTCCTG | 0.0973
CTTTTGCC | 0.0146
AGATCGCG | -0.0418
GCAGAAAC | 0.0633
AAGTTACG | 0.17
GACACGCA | -0.00968
ACTAAAAG | 0.191
GCTAGATA | 0.0407
AAGCTGAG | -0.145
TATAGTCA | 0.13
GTATGGTA | 0.171
CCAGACTC | -0.217
CTAAGAGA | -0.206
CCCCTAGG | 0.16
CGAGAACC | 0.239

Sequence | PBM E-score
GACAGTAC | 0.087
GAGAGCAC | -0.00012
GAATCTAC | 0.00625
ACCGTTCT | 0.0384
CTTAGTTC | 0.00938
AAGACGGC | -0.276
GAGTGCAA | 0.0286
TCAAAGGA | 0.0309
CGCAATGC | -0.0628
ACCACAGT | 0.227
ATGTTATG | 0.158
GTAGATAC | 0.0139
CACCACTA | 0.22
CGCAGTGA | -0.122
CAGGACCC | 0.24
ATTGTAAC | 0.225
GCAGGTCC | -0.0874
CCAGGACG | 0.0331
ACATGACG | -0.07
CCACGAAC | 0.105
CCGGGCCG | 0.0436
TATCCAGA | 0.0532

Sequence | PBM E-score
AACAGAAC | 0.092
AGGCTCTG | -0.166
TAGAAGGA | -0.224
CACCTTAC | 0.148
ATTGATTC | 0.126
ATAGCGTG | -0.165
ACACATGA | 0.0369
ACCGTCTG | -0.0499
AAATGGTG | 0.195
TCAACTGA | -0.101
AGGATAGC | -0.137
AGGCATAG | -0.181
CATTACAG | 0.149
CCCCGGCA | -0.216
ATAGGTGC | -0.149
TCGTAGAA | 0.0356
CGAGATAA | 0.142
GGGGTGTA | -0.0539
CGCCATCA | -0.153
CGGGTTAA | 0.356
CATGACGG | 0.174
AGCACCTA | -0.216

Sequence | PBM E-score
AACGCACC | 0.0303
ACTGTATC | -0.0885
ATCTTCGC | 0.0308
AAAAGGGG | 0.00676
GGAAATAA | 0.182
ATACAGTC | -0.148
ATGGAATG | -0.123
ACGGCAAC | -0.117
GATTATGC | 0.0154
GATATAAA | 0.139
CCCGAGCG | 0.0625
AAGAACCT | 0.262
ACAACTTG | -0.0423
AGGCTTTC | -0.0789
CGTTGAGA | -0.13
ACTATTGG | 0.0433
CTATGTCA | -0.0447
CCTAATGA | 0.00936
ACACCACA | 0.0847
ACCCTTGC | 0.381
